Measured values from the supplement of paper PMC4967469.
pIC50: −log10 of the molar value. By IC50 is meant the dose at which the fit gives 50% viability; where the fit passes the top or lowest dose, that dose stands as a limit. AUC is the area under the same curve over the 256-fold range up to the top dose, as a fraction; the more sensitive the line, the further below 1. For some assays here: An inferred top dose was calculated from the reported fits.

Assays:
Test in all cases: Viability of human cancer cell lines after 72 h of drug (GDSC screen)
[1] = compound: CC(=O)O[C@H]1C(=O)[C@@]2(C)[C@H]([C@H](OC(=O)c3ccccc3)[C@]3(O)C[C@H](OC(=O)[C@H](O)[C@@H](NC(=O)c4ccccc4)c4ccccc4)C(C)=C1C3(C)C)[C@]1(OC(C)=O)CO[C@@H]1C[C@@H]2O [Paclitaxel]; settings: top dose 0.1024 µM
Procedure: (§1)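 Human cancer cell lines in 384-well plates, medium with 10% serum, drug for 72 h over a 256-fold dose range (nine 2-fold or five 4-fold steps up to the top dose). Adherent lines were fixed and stained with the nucleic acid dye Syto60, suspension lines read with resazurin; signal relative to control wells, capped at 0 and 100%. One two-parameter sigmoid per drug and line, fitted in a mixed model over all curves with the slope shared within a line.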

[2] = compound: CC(C)C[C@H](NC(=O)[C@H](Cc1ccccc1)NC(=O)c1cnccn1)B(O)O [Bortezomib]; settings: top dose 0.02 µM
Procedure: as §1

[3] = compound: COC1=CC(c2cc3ccccc3[nH]2)=N/C1=C\c1[nH]c(C)cc1C [Obatoclax mesylate]; settings: top dose 16 µM
Procedure: as §1

[4] = compound: COCC(=O)NC/C=C/c1ccc2ncnc(Nc3ccc(Oc4ccc(C)nc4)c(C)c3)c2c1 [CP724714]; settings: top dose 10.24 µM; top dose inferred
Procedure: as §1

[5] = compound: Cc1cccc(Nc2nc(-c3ccncc3)cs2)c1 [STF-62247]; settings: top dose 10.24 µM; top dose inferred
Procedure: as §1

[6] = compound: Cc1cnc(CNC(=O)c2c(=O)c3ccc(N4CCCN(C)CC4)nc3n3c2sc2ccccc23)cn1 [CX-5461]; settings: top dose 10.24 µM; top dose inferred
Procedure: as §1

Cell Line | AUC [1] | pIC50 [1] | AUC [2] | pIC50 [2] | AUC [3] | pIC50 [3] | AUC [4] | pIC50 [4] | AUC [5] | pIC50 [5] | AUC [6] | pIC50 [6]
COR-L88 (small cell lung carcinoma, adherent) | 0.795 | 7.24 | 0.664 | 8.41 | 0.801 | 5.02 | 0.981 | < 4.99 | 0.982 | < 4.99 | 0.986 | < 4.99
COR-L95 (small cell lung carcinoma, adherent) | 0.901 | < 6.99 | 0.744 | 8.15 | 0.907 | < 4.80 | 0.984 | < 4.99 | 0.98 | < 4.99 | 0.502 | 6.19
COR-L279 (small cell lung carcinoma, suspension) | 0.6 | 7.93 | 0.785 |  | 0.425 | 6.19 | 0.98 | < 4.99 | 0.971 | < 4.99 | 0.879 | 5.07
CP66-MEL (melanoma, adherent) | 0.941 | < 6.99 | 0.397 | 9.20 | 0.478 | 6.06 | 0.978 | < 4.99 | 0.973 | < 4.99 | 0.985 | < 4.99
CPC-N (small cell lung carcinoma, suspension) | 0.717 | 7.55 | 0.616 | 8.57 | 0.599 | 5.72 | 0.978 | < 4.99 | 0.985 | < 4.99 | 0.896 | < 4.99
CTB-1 (B-cell lymphoma, suspension) | 0.776 | 7.25 | 0.718 | 8.18 | 0.291 | 6.69 | 0.974 | < 4.99 | 0.938 | < 4.99 | 0.65 | 5.71
CTV-1 (acute myeloid leukaemia, suspension) | 0.653 | 7.81 | 0.582 | 8.70 | 0.129 | 7.01 | 0.983 | < 4.99 | 0.893 | 5.10 | 0.706 | 5.67
CW-2 (large intestine, adherent) | 0.989 | < 6.99 | 0.988 | < 7.70 | 0.989 | < 4.80 | 0.948 | < 4.99 | 0.98 | < 4.99 | 0.888 | < 4.99
D-263MG (glioma, adherent) | 0.824 | 7.10 | 0.482 | 8.96 | 0.632 | 5.60 | 0.981 | < 4.99 | 0.969 | < 4.99 | 0.978 | < 4.99
D-283MED (medulloblastoma, adherent) | 0.991 | < 6.99 | 0.753 | 8.21 | 0.522 | 5.94 | 0.987 | < 4.99 | 0.991 | < 4.99 | 0.972 | < 4.99
D-502MG (glioma, adherent) | 0.965 | < 6.99 | 0.706 | 8.18 | 0.754 | 5.08 | 0.95 | < 4.99 | 0.96 | < 4.99 | 0.887 | < 4.99
DB (B-cell lymphoma, suspension) | 0.915 | < 6.99 | 0.536 | 8.80 | 0.306 | 6.58 | 0.978 | < 4.99 | 0.682 | 5.66 | 0.79 | 5.28
DEL (lymphoid neoplasm, suspension) | 0.568 | 8.03 | 0.729 | 8.33 | 0.231 | 6.69 | 0.98 | < 4.99 | 0.993 | < 4.99 | 0.926 | < 4.99
DG-75 (Burkitt lymphoma, suspension) | 0.735 | 7.52 | 0.759 | 8.15 | 0.741 | 5.31 | 0.983 | < 4.99 | 0.983 | < 4.99 | 0.96 | < 4.99
DJM-1 (skin, adherent) | 0.536 | 8.10 | 0.611 | 8.60 | 0.244 | 6.73 | 0.982 | < 4.99 | 0.988 | < 4.99 | 0.989 | < 4.99
DMS-79 (small cell lung carcinoma, suspension) | 0.949 | < 6.99 | 0.931 | < 7.70 | 0.914 | < 4.80 | 0.98 | < 4.99 | 0.987 | < 4.99 | 0.881 | < 4.99
DND-41 (T-cell leukaemia, suspension) | 0.876 | 7.09 | 0.405 | 9.15 | 0.115 | 7.14 | 0.99 | < 4.99 | 0.797 | 5.38 | 0.436 | 6.36
DSH1 (bladder, adherent) | 0.978 | < 6.99 | 0.299 | 9.46 | 0.61 | 5.70 | 0.746 | 5.51 | 0.989 | < 4.99 | 0.989 | < 4.99
Daudi (Burkitt lymphoma, suspension) | 0.647 | 7.81 | 0.485 | 8.94 | 0.127 | 7.08 | 0.985 | < 4.99 | 0.943 | < 4.99 | 0.595 | 5.95
EB2 (Burkitt lymphoma, suspension) | 0.982 | < 6.99 | 0.868 | 7.81 | 0.054 | > 7.20 | 0.964 | < 4.99 | 0.947 | < 4.99 | 0.919 | < 4.99
EB-3 (Burkitt lymphoma, suspension) | 0.898 | < 6.99 | 0.592 | 8.63 | 0.262 | 6.73 | 0.972 | < 4.99 | 0.89 | < 4.99 | 0.923 | < 4.99
EC-GI-10 (oesophagus, adherent) | 0.903 | < 6.99 | 0.891 | < 7.70 | 0.898 | < 4.80 | 0.989 | < 4.99 | 0.985 | < 4.99 | 0.987 | < 4.99

Cell Line | AUC [1] | pIC50 [1] | AUC [2] | pIC50 [2] | AUC [3] | pIC50 [3] | AUC [4] | pIC50 [4] | AUC [5] | pIC50 [5] | AUC [6] | pIC50 [6]
EKVX (lung adenocarcinoma, adherent) | 0.963 | < 6.99 | 0.566 | 8.63 | 0.542 | 5.83 | 0.943 | < 4.99 | 0.97 | < 4.99 | 0.97 | < 4.99
EM-2 (chronic myeloid leukaemia, suspension) | 0.794 | 7.27 | 0.472 | 8.98 | 0.652 | 5.55 | 0.974 | < 4.99 | 0.972 | < 4.99 | 0.93 | < 4.99
ES1 (Ewing sarcoma, adherent) | 0.635 | 7.82 | 0.887 | < 7.70 | 0.237 | 6.75 | 0.986 | < 4.99 | 0.969 | < 4.99 | 0.32 | 6.69
ES3 (Ewing sarcoma, adherent) | 0.975 | < 6.99 | 0.875 | < 7.70 | 0.247 | 6.75 | 0.898 | < 4.99 | 0.985 | < 4.99 | 0.924 | < 4.99
ES4 (Ewing sarcoma, adherent) | 0.458 | 8.32 | 0.573 | 8.69 | 0.176 | 7.06 | 0.888 | < 4.99 | 0.961 | < 4.99 | 0.753 | 5.41
ES5 (Ewing sarcoma, adherent) | 0.974 | < 6.99 | 0.808 | 7.91 | 0.374 | 6.37 | 0.968 | < 4.99 | 0.91 | < 4.99 | 0.66 | 5.72
ES6 (Ewing sarcoma, adherent) | 0.731 | 7.46 | 0.114 | > 10.11 | 0.236 | 6.85 | 0.966 | < 4.99 | 0.945 | < 4.99 | 0.789 | 5.24
ES7 (Ewing sarcoma, adherent) | 0.982 | < 6.99 | 0.429 | 9.10 | 0.148 | 7.11 | 0.937 | < 4.99 | 0.933 | < 4.99 | 0.442 | 6.36
ES8 (Ewing sarcoma, adherent) | 0.499 | 8.20 | 0.332 | 9.35 | 0.162 | 6.99 | 0.975 | < 4.99 | 0.958 | < 4.99 | 0.645 | 5.81
ETK-1 (biliary tract, adherent) | 0.351 | 8.63 | 0.65 | 8.46 | 0.166 | 7.09 | 0.942 | < 4.99 | 0.886 | < 4.99 | 0.543 | 6.07
EW-1 (Ewing sarcoma, semi-adherent) | 0.427 | 8.39 | 0.741 | 8.24 | 0.108 | > 7.20 | 0.952 | < 4.99 | 0.966 | < 4.99 | 0.671 | 5.74
EW-3 (Ewing sarcoma, adherent) | 0.856 | 7.00 | 0.902 | < 7.70 | 0.652 | 5.55 | 0.984 | < 4.99 | 0.983 | < 4.99 | 0.778 | 5.32
EW-11 (Ewing sarcoma, adherent) | 0.981 | < 6.99 | 0.921 | < 7.70 | 0.649 | 5.53 | 0.98 | < 4.99 | 0.98 | < 4.99 | 0.804 | 5.15
EW-13 (Ewing sarcoma, suspension) | 0.983 | < 6.99 | 0.944 | < 7.70 | 0.224 | 6.85 | 0.983 | < 4.99 | 0.915 | < 4.99 | 0.745 | 5.45
EW-18 (Ewing sarcoma, suspension) | 0.96 | < 6.99 | 0.873 | < 7.70 | 0.233 | 6.80 | 0.982 | < 4.99 | 0.985 | < 4.99 | 0.81 | 5.23
EW-24 (Ewing sarcoma, semi-adherent) | 0.84 | 7.23 | 0.567 | 8.73 | 0.338 | 6.42 | 0.993 | < 4.99 | 0.918 | < 4.99 | 0.993 | < 4.99
EoL-1-cell (haematopoietic neoplasm, suspension) | 0.616 | 7.89 | 0.861 | 7.86 | 0.17 | 6.93 | 0.917 | < 4.99 | 0.715 | 5.62 | 0.452 | 6.32
GB-1 (glioma, adherent) | 0.756 | 7.39 | 0.63 | 8.51 | 0.254 | 6.77 | 0.978 | < 4.99 | 0.98 | < 4.99 | 0.427 | 6.41
GCIY (stomach, adherent) | 0.891 | < 6.99 | 0.52 | 8.84 | 0.351 | 6.44 | 0.944 | < 4.99 | 0.961 | < 4.99 | 0.919 | < 4.99
GDM-1 (acute myeloid leukaemia, suspension) | 0.625 | 7.86 | 0.461 | 9.01 | 0.451 | 6.13 | 0.976 | < 4.99 | 0.943 | < 4.99 | 0.535 | 6.10
GI-1 (glioma, adherent) | 0.392 | 8.48 | 0.415 | 9.13 | 0.309 | 6.53 | 0.982 | < 4.99 | 0.968 | < 4.99 | 0.821 | 5.25
